Laboratory results as given in PMC4232260, “The crystal structure of the RhoA–AKAP-Lbc DH–PH domain complex” (Biochemical Journal, 2014).

How the values were obtained:
Conditions in all cases: both partners purified
AKAP-Lbc DH domain [1] = biological target: T1, AKAP-Lbc DH domain (UniProt Q12802-2 1976-2211); assay: ITC; with GDP: 0.6 mM RhoA in the syringe, 0.04 mM DH or DH-PH domain in the cell; 15°C; GF buffer (50 mM Hepes pH 7.5, 500 mM NaCl, 5% glycerol, 0.5 mM TCEP) with 50 uM GDP; single-site model
T1 construct: DH domain, Glu1976-Lys2211, terminating at the end of helix alphaI; numbers count on: AKAP13 isoform 1, NP_006729.4; Tag removal is told only through 'a similar protocol'; also called AKAP13 DH domain; DH domain alone; source: E. coli, purified following a similar protocol as the DH-PH domain; not shown: His6, N-terminal, cleaved
T1 sequence (looked up): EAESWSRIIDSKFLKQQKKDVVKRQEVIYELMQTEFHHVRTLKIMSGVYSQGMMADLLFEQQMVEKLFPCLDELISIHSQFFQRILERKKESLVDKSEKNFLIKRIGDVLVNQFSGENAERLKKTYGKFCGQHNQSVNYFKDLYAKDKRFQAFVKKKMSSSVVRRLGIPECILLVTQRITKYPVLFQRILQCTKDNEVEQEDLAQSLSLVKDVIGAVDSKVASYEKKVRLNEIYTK

AKAP-Lbc DH-PH domain [2] = biological target: T2, AKAP-Lbc DH-PH domain (UniProt Q12802-2 1973-2342); assay: as above
T2 construct: numbers count on: AKAP13 isoform 1, NP_006729.4; TEV cleavage at * would leave SM at the N-terminus; also called AKAP13 DH-PH; AKAP-Lbc RhoGEF domain; source: E. coli BL21(DE3) with pRARE2, purified (Ni2+-Sepharose, TEV cleavage, gel filtration); not shown: His6, N-terminal, cleaved
T2 sequence (looked up): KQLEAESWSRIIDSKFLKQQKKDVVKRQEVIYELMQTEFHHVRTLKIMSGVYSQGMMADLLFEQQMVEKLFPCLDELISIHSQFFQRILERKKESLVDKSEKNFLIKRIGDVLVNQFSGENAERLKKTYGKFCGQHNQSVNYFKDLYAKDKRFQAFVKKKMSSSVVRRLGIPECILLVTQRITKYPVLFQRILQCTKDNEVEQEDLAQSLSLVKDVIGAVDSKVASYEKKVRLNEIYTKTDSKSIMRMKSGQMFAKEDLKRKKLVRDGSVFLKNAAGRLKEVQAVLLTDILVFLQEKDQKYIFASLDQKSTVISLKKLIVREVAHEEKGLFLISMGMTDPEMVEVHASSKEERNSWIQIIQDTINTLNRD

AKAP-Lbc DH domain [3] = biological target: T1, AKAP-Lbc DH domain; assay: ITC; without GDP: RhoA freed of nucleotide (5 mM EDTA, alkaline phosphatase, gel filtration); 0.6 mM RhoA in the syringe, 0.04 mM DH or DH-PH domain in the cell; 15°C; GF buffer (50 mM Hepes pH 7.5, 500 mM NaCl, 5% glycerol, 0.5 mM TCEP); single-site model
AKAP-Lbc DH-PH domain [4] = biological target: T2, AKAP-Lbc DH-PH domain; assay: as above

Kd (AKAP-Lbc DH domain [1]): 21.3 µM
dH (AKAP-Lbc DH domain [1]): 20.2 kcal/mol
stoichiometry N (AKAP-Lbc DH domain [1]): 0.55
Kd (AKAP-Lbc DH-PH domain [2]): 18.1 µM
dH (AKAP-Lbc DH-PH domain [2]): 7.6 kcal/mol
stoichiometry N (AKAP-Lbc DH-PH domain [2]): 0.55
Kd (AKAP-Lbc DH domain [3]): 10.2 µM
dH (AKAP-Lbc DH domain [3]): 12.7 kcal/mol
stoichiometry N (AKAP-Lbc DH domain [3]): 0.68
Kd (AKAP-Lbc DH-PH domain [4]): 33.9 µM
dH (AKAP-Lbc DH-PH domain [4]): 49.6 kcal/mol
stoichiometry N (AKAP-Lbc DH-PH domain [4]): 0.35
B1: RhoA ([…]) (domain or fragment)
chain: not shown
notes: RhoA, […]; DNA template from the Mammalian Gene Collection; TEV cleavage at * would leave SM at the N-terminus; also called RhoA-GDP; apo-RhoA; source: E. coli BL21(DE3) with pRARE2, purified (Ni2+-Sepharose, TEV cleavage, gel filtration); not shown: His6, N-terminal, cleaved
